Target: XIAP BIR2 (His-BIR2 (124-240/C202A/C213G)) (Homo sapiens (Human), UniProt P98170, C202A/C213G)
Conditions: read-out: XIAP-BIR2 AlphaScreen IC50; 50 nM His-BIR2 (124-240/C202A/C213G), 50 nM Biotinylated SMAC peptide

SMILES | IC50 [nM]
CN[C@@H](C)C(=O)N[C@H](C(=O)N1C[C@@H](NC(=O)c2ccc(CN(C(=O)[C@@H]3Cc4ccccc4CN3C(=O)[C@@H](NC(=O)[C@H](C)NC)C(C)(C)C)[C@H](C)c3ccccc3C)cc2)C[C@H]1C(=O)N[C@@H]1CCCc2ccccc21)C(C)(C)C [Example 28, (S)-2-((S)-3,3-Dimethyl-2-((S)-2-(methylamino)propanamido)butanoyl)-N-(4-(((3S,5S)-1-((S)-3,3-dimethyl-2-((S)-2-(methylamino)propanamido)butanoyl)-5-(((R)-1,2,3,4-tetra-hydronaphthalen-1-yl)carbamoyl)pyrrolidin-3-yl)carbamoyl)benzyl)-N-((R)-1-(o-tolyl)ethyl)-1,2,3,4-tetrahydro-isoquinoline-3-carboxamide] | 250
CN[C@@H](C)C(=O)N[C@H](C(=O)N1C[C@@H](NC(=O)c2ccc(CN(C(=O)[C@@H]3Cc4ccccc4CN3C(=O)[C@@H](NC(=O)[C@H](C)NC)C(C)(C)C)[C@H](C)c3ccccc3OC)cc2)C[C@H]1C(=O)N[C@@H]1CCCc2ccccc21)C(C)(C)C [Example 24, (S)-2-((S)-3,3-Dimethyl-2-((S)-2-(methylamino)propanamido)butanoyl)-N-(4-(((3S,5S)-1-((S)-3,3-dimethyl-2-((S)-2-(methylamino)propanamido)butanoyl)-5-(((R)-1,2,3,4-tetrahydro-naphthalen-1-yl)carbamoyl)pyrrolidin-3-yl)carbamoyl)benzyl)-N-((R)-1-(2-methoxyphenyl)ethyl)-1,2,3,4-tetrahydro-isoquinoline-3-carboxamide] | 60
CN[C@@H](C)C(=O)N[C@H](C(=O)N1C[C@@H](NC(=O)c2ccc(CN(CCc3ccc4ccccc4c3)C(=O)[C@@H]3Cc4ccccc4CN3C(=O)[C@@H](NC(=O)[C@H](C)NC)C(C)(C)C)cc2)C[C@H]1C(=O)N[C@@H]1CCCc2ccccc21)C(C)(C)C [Example 12, (S)-2-((S)-3,3-Dimethyl-2-((S)-2-(methylamino)propanamido)butanoyl)-N-(4-(((3S,5S)-1-((S)-3,3-dimethyl-2-((S)-2-(methyl-amino)propanamido)butanoyl)-5-(((R)-1,2,3,4-tetrahydro-naphthalen-1-yl)carbamoyl)pyrrolidin-3-yl)carbamoyl)benzyl)-N-(2-(naphthalen-2-yl)ethyl)-1,2,3,4-tetrahydro-isoquinoline-3-carboxamide] | 1300
CN[C@@H](C)C(=O)N[C@H](C(=O)N1CCc2ccccc2[C@H]1C(=O)N(Cc1ccc(C(=O)N[C@H]2C[C@@H](C(=O)N[C@@H]3CCCc4ccccc43)N(C(=O)[C@@H](NC(=O)[C@H](C)NC)C(C)(C)C)C2)cc1)[C@H](C)Cc1ccccc1F)C(C)(C)C [Example 27, (S)-2-((S)-3,3-Dimethyl-2-((S)-2-(methylamino)propanamido)butanoyl)-N-(4-(((3S,5S)-1-((S)-3,3-dimethyl-2-((S)-2-(methylamino)propanamido)butanoyl)-5-(((R)-1,2,3,4-tetrahydro-naphthalen-1-yl)carbamoyl)pyrrolidin-3-yl)carbamoyl)benzyl)-N-((R)-1-(2-fluorophenyl)propan-2-yl)-1,2,3,4-tetrahydro-isoquinoline-1-carboxamide] | 1740
CN[C@@H](C)C(=O)N[C@H](C(=O)N1C[C@@H](NC(=O)C2(CN(C(=O)[C@@H]3Cc4ccccc4CN3C(=O)[C@@H](NC(=O)[C@H](C)NC)C(C)(C)C)[C@H](C)c3cccc(F)c3F)CC2)C[C@H]1C(=O)N[C@@H]1CCCc2ccccc21)C(C)(C)C [Example 43, (S)-N-((R)-1-(2,3-Difluorophenyl)ethyl)-2-((S)-3,3-dimethyl-2-((S)-2-(methylamino)propanamido)butanoyl)-N-((1-(((3S,5S)-1-((S)-3,3-dimethyl-2-((S)-2-(methylamino)propanamido)butanoyl)-5-(((R)-1,2,3,4-tetrahydronaphthalen-1-yl)carbamoyl)pyrrolidin-3-yl)carbamoyl)cyclopropyl)methyl)-1,2,3,4-tetrahydroisoquinoline-3-carboxamide] | 150
